# Results: paper PMC6919601, “Identification of Plasmodium dipeptidyl aminopeptidase allosteric inhibitors by high throughput screening” (PLoS ONE, 2019)
# About 230 (0.21%) of roughly 110,000 compounds showed an effect of 50% or more. This is one part of the list.
# Biological target: DPAP1 (Plasmodium falciparum, UniProt Q8IIJ9)
# Assay: primary screen, percent inhibition; read by cleavage of a fluorogenic dipeptide substrate; higher = more effect of the substance
# Parameters: species or system P. falciparum D10 trophozoite lysates; single well
# 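Further: 30 min substrate incubation versus DMSO and 10 µM JCP410 controls.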
# DPAP1, sequence (Q8IIJ9 whole entry, looked up): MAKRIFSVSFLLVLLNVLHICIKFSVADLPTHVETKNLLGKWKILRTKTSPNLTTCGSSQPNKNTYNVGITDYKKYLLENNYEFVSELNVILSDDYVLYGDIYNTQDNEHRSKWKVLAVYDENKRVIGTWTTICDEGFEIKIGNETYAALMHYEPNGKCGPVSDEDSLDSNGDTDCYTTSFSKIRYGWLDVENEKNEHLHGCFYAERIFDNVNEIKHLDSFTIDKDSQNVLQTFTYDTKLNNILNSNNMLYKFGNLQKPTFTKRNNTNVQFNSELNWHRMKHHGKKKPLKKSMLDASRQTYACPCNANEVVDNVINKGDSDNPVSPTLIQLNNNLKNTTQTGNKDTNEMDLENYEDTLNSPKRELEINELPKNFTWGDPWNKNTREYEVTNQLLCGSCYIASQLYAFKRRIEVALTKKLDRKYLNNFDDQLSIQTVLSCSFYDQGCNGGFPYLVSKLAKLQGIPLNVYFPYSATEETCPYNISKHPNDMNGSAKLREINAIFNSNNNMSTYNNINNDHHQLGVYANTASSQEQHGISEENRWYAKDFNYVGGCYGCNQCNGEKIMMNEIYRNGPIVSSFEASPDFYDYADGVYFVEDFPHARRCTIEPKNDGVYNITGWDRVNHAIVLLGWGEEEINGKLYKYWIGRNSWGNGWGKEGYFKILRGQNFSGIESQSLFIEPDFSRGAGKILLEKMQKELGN
row,Compound,% Inhibition @ 10 uM [%]
1,CN1CCN(c2nc(-c3ccc(S(=O)(=O)NC4(C(=O)NCC#N)CCCCC4)cc3)cs2)CC1,-3.04
2,C=CCn1c(=N)c(C(=O)OC)cc2c(=O)n3ccccc3nc21,5.17
3,CCNc1oc(COc2ccccc2)nc1C#N,1.43
4,Cc1ccccc1C(=O)Nc1ccc(Cl)cc1C(=O)c1ccccc1,-4.4
5,C/C(=N/S(=O)(=O)c1ccc(C)cc1)N1CCN(S(=O)(=O)c2ccc(C)cc2)C1c1ccccc1 (stereo not drawn),-3.14
6,C/C=C/Cn1c(SCc2ccc(Cl)cc2)nc2c1c(=O)[nH]c(=O)n2C,-4.65
7,COc1ccc(NC(=O)c2cccc(S(=O)(=O)Nc3ccc(C)cc3)c2)cc1,-0.0217
8,Cc1cc(=O)n2nc(N3CCCC(C(=O)NC4CCCCCC4)C3)sc2n1 (stereo not drawn),1.38
9,COc1cccc(-c2nn(C)c3sc(C(=O)NCCN4CCOCC4)cc23)c1,4.51
10,c1ccc(CCn2c(C3CCCO3)nc3ccccc32)cc1 (stereo not drawn),-1.22
11,O=C(NCc1ccccc1Cl)C1CCN(c2ncnc3c2sc2cccc(F)c23)CC1,-5.15
12,CC(C)OCCCNC(=O)C1CCN(c2nnc(-n3cccc3)s2)CC1,1.15
13,Cn1c(CCNC(=O)c2ccc(F)cc2)nc2ccccc21,4.06
14,Cc1ccc(S(=O)(=O)/N=C2\C=C(N3CCOCC3)C(=O)c3ccccc32)cc1,11.8
15,Cc1cc(Br)ccc1OCC(=O)Nc1ccc(F)cc1F,2.84
16,CN(C)c1ccc(CN2CCSCC2)cc1,-2.56
17,CCOC(=O)N1CCN(Cc2sccc2C)CC1,0.472
18,Cc1ccc(-c2ccc(CCC(=O)O)o2)cc1,1.52
19,COc1ccc(CN2CCN(S(=O)(=O)c3ccc(C)cc3)CC2)c(OC)c1OC,-2.73
20,CC(C)Oc1ccc(CNCc2c(C(=O)O)n(Cc3ccc(Cl)cc3)c3ccccc23)cc1,-1.38
21,O=C(O)C1C2CCC(O2)C1C(=O)Nc1ccc(F)cc1 (stereo not drawn),-2.29
22,Cc1cc(Cl)ccc1OCCCC(=O)NCc1cccnc1,-5.57
23,COc1cc(C2c3c(oc4ccc(F)cc4c3=O)C(=O)N2c2nccs2)ccc1OCCC(C)C (stereo not drawn),0.415
24,O=C(CSc1nnnn1-c1ccccc1)Nc1ncc2c(n1)CC(c1ccco1)CC2=O (stereo not drawn),4.94
25,O=C(c1ccccc1)N1CCCOC1c1ccccc1 (stereo not drawn),2.09

row,Compound,% Inhibition @ 10 uM [%]
1,Cc1nn(-c2ccccc2)c(-n2cccc2)c1C(=O)N1CCC(N2CCCCC2)CC1,1.8
2,CCOCCCNC(=O)C1CCC(CNS(=O)(=O)c2cccc3nsnc23)CC1 (stereo not drawn),-0.465
3,COc1ccc(C2CC(O)=C/C(=N/CC(C)C)C2)cc1 (stereo not drawn),-4.74
4,CC1=CN2C(=N)/C(=C/c3cc(C)n(-c4cc(Cl)ccc4C)c3C)C(=O)N=C2S1,5.25
5,C=CCn1/c(=N\C(=O)CC)n(C)c2ccccc21,-7.81
6,Cc1ccc2nc(C)cc(N3CCCC3)c2c1,0.121
7,Cc1cc(C)nc(SCc2nnc(SCC(N)=O)n2C)n1,4.41
8,CCOC(=O)C1=CN(Cc2ccc(F)cc2)C=C(C(=O)OCC)C1c1ccc(OC)c(O)c1,-10.9
9,CC1Cc2cc(C(=O)C3=C(O)C(=O)N(CCN4CCOCC4)C3c3ccncc3)ccc2O1 (stereo not drawn),-3.69
10,CCCn1c2ccccc2c2cnn(CC(=O)Nc3ccccn3)c(=O)c21,0.244
11,Cc1cccc(C)c1NC(=O)CSCCN,-5.74
12,Cc1nnc2c(NC3CCCC3)nc3ccc(C(=O)c4ccccc4)cc3n12,-2.5
13,Cn1ncc(Cl)c1C(=O)N1CCN(C(=O)c2ccco2)CC1,5.87
14,CC1(C)CC(=O)C2=C(C1)NC(=O)CC2c1ccccc1[N+](=O)[O-] (stereo not drawn),4.52
15,O=Cc1c(C(=O)O)[nH]c2ccccc12,3.54
16,CCOc1ccc(NC(=O)C2(C)CC3C=CC2C3)cc1 (stereo not drawn),4.89
17,CC(c1nc2ccccc2[nH]1)N1CCCCC1 (stereo not drawn),6.7
18,Cc1ccc(C(=O)Nc2ccc(C)c(C)c2)cc1,2.46
19,O=C(CCc1ccccc1)Nc1nnc(S(=O)(=O)NCc2ccccc2)s1,-3.51
20,Cc1sc(N)nc1-c1ccc(CC(C)C)cc1,-3.94
21,c1ccc(C(c2ccccc2)c2noc(CSc3nnnn3-c3ccccc3)n2)cc1,-2.14
22,COc1cc(CN2CCN(Cc3ccc(Br)cc3)CC2)cc(OC)c1OC,1.78
23,CCCCNC(=O)NS(=O)(=O)c1cnccc1Sc1c(Cl)cccc1Cl,0.643
24,CC[N+]1(Cc2ccccc2)C2=C(CN(C)CC2)c2ccccc21 (stereo not drawn),3.79
25,Cc1ccc(C2=NC(=O)C(NC(=O)c3ccccc3)(C(F)(F)F)N2)cc1 (stereo not drawn),0.413

row,Compound,% Inhibition @ 10 uM [%]
1,CCOc1cc(C)c(S(=O)(=O)NCCN2CCOCC2)cc1C,1.88
2,O=S(=O)(Cc1ccccc1)NCc1ccco1,-2.35
3,C(=N\Cc1cccnc1)/c1c2ccccc2cc2ccccc12,-3.06
4,Cc1cc2cc(CNS(C)(=O)=O)ccc2n1C,-1.89
5,CC1=C(C(=O)OCc2ccccc2)C(c2cccnc2)C2=C(O)CC(C)(C)CC2=N1 (stereo not drawn),3
6,CCc1ccc(N2CC(C(=O)Nc3ccc(F)cc3)CC2=O)cc1 (stereo not drawn),5.09
7,O=C(NCc1ccco1)/C(=C/c1ccc2c(c1)OCO2)NC(=O)c1ccco1,23.4
8,CN1C(=O)NC(NC(=O)C2CC2)(C(F)(F)F)C1=O (stereo not drawn),-5.2
9,Cc1c(Cl)cccc1N(CC(=O)Nc1ccc2c(c1)OCO2)S(=O)(=O)c1ccccc1,5.03
10,Cc1nn(C)c(C(=O)Nc2sc(C)c(C)c2C#N)c1Cl,3.05
11,COc1cc(C2CC(c3c(O)cc(C)oc3=O)=Nc3ccccc3S2)ccc1O (stereo not drawn),-0.415
12,Cc1ccc(OCC(=O)Nc2ccc(C(=O)c3ccccc3)cc2)cc1,0.795
13,CC(C)CN(CC(C)C)C(=O)c1cc(S(=O)(=O)N2CCOCC2)cn1C,5
14,c1ccc2c(c1)nnn2Cc1nnc2sc(-c3ccncc3)nn12,4.47
15,CCOC(=O)Nc1ccc2c(c1)N(C(=O)CN1CCN(C)CC1)c1ccccc1CC2,-8.03
16,O=C(COc1ccc2ccccc2c1)Nc1ccc(S(=O)(=O)N2CCCCCC2)cc1,-2.16
17,COc1ccc(-c2c(C)nn3c(N4CCC5(CC4)OCCO5)cc(C)nc23)cc1OC,-1.89
18,O=C(NCc1ccccc1)c1ccc(Br)c(S(=O)(=O)N2CCOCC2)c1,1.63
19,CC/N=C1\SC(C(=O)NCCc2ccccc2)CC(=O)N1CC (stereo not drawn),1.82
20,O=C1CSC(c2ccccc2[N+](=O)[O-])N1CC12CC3CC(CC(C3)C1)C2 (stereo not drawn),-2.44
21,CC(C)Oc1ccccc1/C=C/c1nc(O)c([N+](=O)[O-])c(O)n1,2.6
22,CCCCNC(=O)CSc1nc2sc(C(=O)OCC)c(C)c2c(=O)n1Cc1ccco1,-2.74
23,CC1CCc2c(sc(NC(=O)C3CC4CCC3C4)c2C#N)C1 (stereo not drawn),2.78
24,CCOc1ccc(C(=O)C2=C(O)C(=O)N(CCCN(C)C)C2c2ccc(OC)c(OC)c2)cc1C (stereo not drawn),-5.63
25,Cc1ccc(/N=C2\S/C(=C/c3ccc(C(=O)O)cc3)C(=O)N2C)cc1,-2.44

row,Compound,% Inhibition @ 10 uM [%]
1,O=C(Cn1ncc2c3ccccc3nc-2c1O)NCCc1ccsc1,0.244
2,Cc1ccc(-n2cnc3cc(C(=O)NC4CCCC4)ccc32)c(C)c1,-1.99
3,CCOC(=O)N1CCN(C(=O)C2CCN(c3nc4c(C)cc(C)cc4s3)CC2)CC1,-1.6
4,O=C(/C(=C/c1ccco1)c1nc2ccccc2[nH]1)c1ccccc1,-5.28
5,CC(=O)N1CCC2(CC1)OC(=O)C(C)=C2C(=O)N1CCC(C)CC1,-2.69
6,Cc1ccc(NC(=O)Nc2cccc3ccccc23)cc1Cl,-4.01
7,CC1(c2ccccc2)COC2(OC1)C(=O)N(CN1CCCCC1)c1ccccc12 (stereo not drawn),-3.19
8,O=C(O)/C(O)=C/C(=O)c1ccc(Cl)cc1,3.24
9,Cc1ccc(NC(=O)CN(Cc2ccccc2)S(=O)(=O)c2ccccc2)c(C)c1,-4.01
10,Cc1cc(C(=O)NC(C)C)c2c(C)nn(-c3ccccc3Cl)c2n1,-1.3
11,Cc1ccc(S(=O)(=O)/N=C(\N)c2ccc(F)cc2)cc1,-0.836
12,Cc1ccc2sc(-c3ccc(NC(=O)C4CC4)cc3)nc2c1,4.75
13,O=C(CCc1nnc2n(Cc3ccccc3)c(=O)c3ccccc3n12)NCc1ccc2c(c1)OCO2,-0.692
14,COc1ccc(C2CC(C(F)(F)F)n3ncc(C(N)=O)c3N2)cc1 (stereo not drawn),2.7
15,COc1cc(CNc2ccc3[nH]c(O)nc3c2)cc(Cl)c1OCC(=O)NC(C)(C)C,-1.82
16,CNC(=O)Cn1ncc2c3ccccc3n(C)c2c1=O,-1.92
17,COC(=O)c1[nH]c2ccccc2c1S(=O)c1ccccc1 (stereo not drawn),-5.37
18,Cc1noc2ncnc(N(C)Cc3ccccc3)c12,-7.73
19,NC(=O)c1c(NC(=O)c2ccc(Br)o2)sc2c1CCCCC2,5.42
20,Clc1ccc2oc(-c3ccccc3)c/c(=N\Cc3ccco3)c2c1,-4.85
21,O=C(CSc1c2c(nc3ccccc13)CCCC2)NCc1ccc(F)cc1,-5.1
22,CCCNC(=O)N1CCN(c2nc3ccccc3s2)CC1,-0.551
23,O=C(CCCn1sc2ccccc2c1=O)NC1CCN(Cc2ccccc2)CC1,-6.59
24,CCCCn1c(Oc2ccc(F)cc2)nc2c1c(=O)n(C)c(=O)n2C,1.19
